PMC4336329 (PLoS ONE, 2015)
Screen size: about 310,000 compounds; about 14,000 (4.5%) showed an effect of 50% or more. Effects have a minus sign here. The list shows a part of the results.

target: human ether-à-go-go-related gene (hERG) potassium channel (human, UniProt Q12809); assay: primary screen, population patch clamp on CHO cells stably expressing hERG
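Note: peak tail current of the secondary pulse compared with the same well before compound.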

Chain of human ether-à-go-go-related gene (hERG) potassium channel (Q12809 whole entry, looked up): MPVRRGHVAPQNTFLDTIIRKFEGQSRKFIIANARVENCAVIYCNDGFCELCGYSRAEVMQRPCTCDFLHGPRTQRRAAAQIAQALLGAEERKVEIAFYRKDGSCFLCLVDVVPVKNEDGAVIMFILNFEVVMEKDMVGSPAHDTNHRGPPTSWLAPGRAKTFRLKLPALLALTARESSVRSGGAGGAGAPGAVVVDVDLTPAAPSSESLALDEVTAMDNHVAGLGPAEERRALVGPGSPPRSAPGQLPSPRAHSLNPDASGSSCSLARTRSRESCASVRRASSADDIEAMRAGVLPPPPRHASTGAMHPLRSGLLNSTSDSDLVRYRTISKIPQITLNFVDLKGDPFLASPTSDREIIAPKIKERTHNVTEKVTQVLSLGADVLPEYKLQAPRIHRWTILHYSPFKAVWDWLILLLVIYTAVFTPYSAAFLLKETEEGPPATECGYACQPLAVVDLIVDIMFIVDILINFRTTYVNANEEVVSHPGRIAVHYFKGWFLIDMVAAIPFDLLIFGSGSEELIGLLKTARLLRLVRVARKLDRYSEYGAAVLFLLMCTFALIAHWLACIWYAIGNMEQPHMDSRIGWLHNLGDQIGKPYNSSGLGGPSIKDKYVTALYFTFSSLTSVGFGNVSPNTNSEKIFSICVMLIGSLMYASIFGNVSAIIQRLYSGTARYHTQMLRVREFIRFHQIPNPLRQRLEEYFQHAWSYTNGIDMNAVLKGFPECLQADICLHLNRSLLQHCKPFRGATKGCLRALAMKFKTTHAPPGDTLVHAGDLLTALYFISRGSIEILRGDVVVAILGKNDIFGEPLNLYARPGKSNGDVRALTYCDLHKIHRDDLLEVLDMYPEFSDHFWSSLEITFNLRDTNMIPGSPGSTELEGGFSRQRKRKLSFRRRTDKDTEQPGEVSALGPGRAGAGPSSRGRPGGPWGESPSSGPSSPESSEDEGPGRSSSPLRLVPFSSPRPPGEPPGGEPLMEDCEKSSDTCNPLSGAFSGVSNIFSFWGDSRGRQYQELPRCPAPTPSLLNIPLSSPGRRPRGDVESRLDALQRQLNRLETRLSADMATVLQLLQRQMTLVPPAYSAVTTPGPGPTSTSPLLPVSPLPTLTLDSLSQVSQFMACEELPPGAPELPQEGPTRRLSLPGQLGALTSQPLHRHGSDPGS

SMILES | hERG current change (%, negative = inhibition) at 10uM [%]
Cc1ccc(-c2nc3ccccc3s2)cc1NC(=S)NC(=O)c1cccc2ccccc12 | -27.1
COc1ccc(N2CCN(C3CCCN(C(=O)c4ccoc4)C3)CC2)cc1 (stereo not drawn) | -18.2
Cc1ccc(CN2CCN(Cc3cc(=O)c4ccccc4[nH]3)CC2CCO)o1 (stereo not drawn) | -30.8
CCNC(=O)COC(=O)/C=C/c1cccc(F)c1 | -10.3
CCOC(=O)c1c(C)noc1-c1ccco1 | 0.728
Cc1c(C)n(CCc2ccccc2)c2ncnc(NCCCN(C)C)c12 | -58
O=C(O)CCc1ccc(-c2ccccc2)n1NC(=O)c1sc2ccccc2c1Cl | 4.55
CCCOc1ccc(N2C(=O)CC(N3CCC(C(=O)OCC)CC3)C2=O)cc1 (stereo not drawn) | -20.1
O=C1NC[C@H](Cc2ccc(O)cc2)N(CCc2cccc3ccccc23)C1=O | -4.26
CC1CC(C)CN(C(=O)CSc2ccsc2[N+](=O)[O-])C1 (stereo not drawn) | -26.1
CC(C)C(=O)Nc1nnc(Cc2c[nH]c3ccccc23)s1 | 28
Cc1ccccc1-c1nc(C#N)c(N2CCCCC2)o1 | 15
CN(C)S(=O)(=O)N1CCC(n2nccc2NC(=O)CCc2ccccc2)CC1 | -4.77
O=C(COC(=O)/C=C/c1cccc([N+](=O)[O-])c1)NCCCN1CCCC1=O | -9.61
Cc1ccc(N2C(=O)CC3(CC4C=CC3C4)C2=O)cc1 (stereo not drawn) | 6.7
COC(=O)c1ccccc1N=C(SC)N(C)C | 9.6
COC(=O)c1cc(OC)c(OC)cc1NC(=S)NC(=O)c1ccco1 | 10.8
CCC(=O)Nc1cc(-c2nnc(OC)c3ccccc23)ccc1N1CCOCC1 | -5.46
O=S(=O)(Cc1ccc(Cl)cc1)Nc1ccc2c(c1)OCO2 | -6.54

SMILES | hERG current change (%, negative = inhibition) at 10uM [%]
COc1ccc(CN2CCN(Cc3ccc(C)cc3)CC2)c(OC)c1.O=C(O)C(=O)O | -70.3
CN(C)S(=O)(=O)N1CCN(CC(=O)Nc2ccc(F)cc2)CC1 | -69.7
CCOc1cc(C2C(C#N)=C(N)Oc3cc(N)ccc32)ccc1O (stereo not drawn) | 4.76
COC(=O)c1nn(Cc2ccccc2)c(=O)c2ccccc12 | -3.51
COc1ccc(NC(=O)COc2ccc3c(C)cc(=O)oc3c2)cc1S(=O)(=O)N1CCCCC1 | -1.06
CN(C(=O)c1ccccc1OC1CCN(S(C)(=O)=O)CC1)C1CCOC1 (stereo not drawn) | 11.7
COCCN1C2=C(COC(C)(C)C2)C(=S)NC1c1ccccc1 (stereo not drawn) | 9.13
CN(C)S(=O)(=O)N(CC(=O)N1CCC(Cc2ccccc2)CC1)c1ccccc1 | -0.114
COC(=O)c1ccccc1NC(=O)c1ccc(F)cc1 | 4.96
O=C(N/N=C/c1cc([N+](=O)[O-])ccc1O)c1cccc2cc[nH]c12 | -5.42
CCCN=CC1=C(O)CC(c2ccccc2)CC1=O (stereo not drawn) | -13.8
OCCC1CN(Cc2cccc3c2OCO3)CCN1C1CCCC1 (stereo not drawn) | -20.4
O=C(O)c1cccc(N/N=C/c2sc(N3CCOCC3)nc2-c2ccccc2)c1 | -13.4
CCS(=O)(=O)n1nc(-c2ccco2)nc1N | -21.2
O=C(NC(Cc1ccccc1)C(=O)OCC(=O)N1CCc2ccccc21)c1ccco1 (stereo not drawn) | 0.762
Fc1cccc(C2NCCc3[nH]cnc32)c1 (stereo not drawn) | 23.5
O=[N+]([O-])c1cccc(/C=N/n2c(COc3ccccc3)n[nH]c2=S)c1 | -20.1
Cc1ccc(NC(=O)c2ccc(OCC3CCCO3)cc2)nc1 (stereo not drawn) | -2.69
Oc1ccc(Br)cc1/C=N/n1cnc2ccccc21 | 13.1

SMILES | hERG current change (%, negative = inhibition) at 10uM [%]
Cc1cc(C)cc(N(CCC(=O)Nc2nnc(C)s2)S(=O)(=O)c2ccc(Cl)cc2)c1 | 17.4
CC(=O)N1CCc2cc(S(=O)(=O)CCC(=O)Nc3cc(C)cc(C)c3)ccc21 | -1.42
CCN(CC)c1ccc(N2C(=NC(=O)C3CCCO3)SC3CS(=O)(=O)CC32)cc1 (stereo not drawn) | 3.6
CC(=O)c1ccc(N2CCN(S(=O)(=O)c3ccc(-c4cc(C)no4)s3)CC2)cc1 | -1.08
O=C(CCC1CCCN(Cc2ccc3c(c2)CCO3)C1)NCc1ccc(F)c(F)c1 (stereo not drawn) | -63.7
CN1CCN(Cc2cccc(Oc3ccc(Cl)cc3)c2)CC1 | 1.98
CCOc1ccccc1NC(=O)c1cc(S(=O)(=O)N2CCN(CC)CC2)ccc1Cl | -27.6
Cc1ccc2c(c1)C(O)(CC(=O)c1cccc(-n3cccc3)c1)C(=O)N2 (stereo not drawn) | 16.8
CCC(=Nc1ccccc1NC(C)=O)c1c(O)n(C)c(=O)n(C)c1=O | -5.43
CC1(C)NC(=O)[C@H]2CCCN21 | 12.9
CCc1nnc(NC(=O)CSc2ncnc3c2oc2ccccc23)s1 | 8.42
Cc1ccc(S(=O)(=O)N2CCN(C(=O)CC(C)n3nc(C)c(Cl)c3C)CC2)cc1C (stereo not drawn) | -0.217
O=C(NCCCN1CCCC1=O)c1ccc(NS(=O)(=O)c2ccccc2)cc1 | 0.22
Cn1nc(-c2ccccc2F)c2cc(C(=O)Nc3ccc4c(c3)OCCO4)sc21 | 14.8
Cc1cccc(N2C(N)=NC(N)=NC23CCCCC3)c1.Cl | 2.94
CCCNC(=O)CCc1c(C)nc2nc(C)nn2c1C | 9.45
COc1ccc(NC(=O)c2cc(-c3ccc4c(c3)OCO4)on2)cc1OC | -26.6
COC(=O)c1ccc(/C=N/n2c(C)nc3ccccc3c2=O)cc1 | 12.3
CC(C)C[C@H](N)c1nnc(S(=O)(=O)Cc2ccc(F)cc2)o1.Cl | 9.97
